# Test results from article PMC12441861, “Next-Generation Lipid Prodrugs Orally Deliver Tenofovir via Enhanced Chylomicron Incorporation” (ACS Pharmacology & Translational Science, 2025).
# Like-named read-outs stand apart in the source and are kept apart here.
# Legend:
# [1] = tested on: HIV-1 pseudovirus expressing Env proteins from the Z1800 M transmitted/founder clone E4.02
# [2] = tested on: HIV-1 pseudovirus expressing Env proteins from the Z1800 M transmitted/founder clone E4.02; experiment: HIV-1 pseudovirus infectivity (luciferase) assay in TZM-bl cells; details: for Fold Change (IC50 relative to TXL): compound IC50 / TXL IC50 of the corresponding experiment
# [3] = TZM-bl, read-out: Antiviral Activity IC50, TZM-bl cells, experiment of 15a–b and 21a–b with TXL (reference TXL 0.20 μM)
# [4] = TZM-bl, read-out: Antiviral Activity IC50, TZM-bl cells, experiment of 8a–d with TXL (reference TXL 0.001 μM)
SMILES,fold more potent than TXL [1] [fold],"IC50 [2, 3] [nM]",Fold Change (IC50 relative to TXL) [2],"IC50 ([2]; read-out: Antiviral Activity IC50, TZM-bl cells, experiment of 15a–b and 21a–b with TXL (reference TXL 0.20 μM)) [nM]","IC50 [2, 4] [nM]"
"C[C@H](Cn1cnc2c(N)ncnc21)OCP(=O)(O)OC[C@H](COCCCCCCCCCCCCCCCC(F)(F)F)OCc1ccccc1 [21a, Ammonium[(1R)-2-(6-Aminopurin-9-yl)-1-methyl-ethoxy]methyl-[(2S)-2-benzyloxy-3-(16,16,16-trifluorohexadecoxy)propoxy]phosphinate]",5,40,0.2,,
"C[C@H](Cn1cnc2c(N)ncnc21)OCP(=O)(O)OCCCOCCCCCCCCCCCCCCCCCC(F)(F)F [15b, Ammonium[(1R)-2-(6-aminopurin-9-yl)-1-methyl-ethoxy]methyl-[3-(18,18,18-trifluorooctadecoxy)propoxy]phosphinate]",,600,3,610,
"C[C@H](Cn1cnc2c(N)ncnc21)OCP(=O)(O)OCCCOCCCCCCCCCCCCCCCC(F)(F)F [15a, Ammonium[(1R)-2-(6-aminopurin-9-yl)-1-methyl-ethoxy]methyl-[3-(16,16,16-trifluorohexadecoxy)propoxy]phosphinate]",,1600,,,
"CCCCCCCCCCCCCCCCCCOC[C@H](COP(=O)(O)CO[C@H](C)Cn1cnc2c(N)ncnc21)OCc1ccccc1 [8d, Ammonium[(1R)-2-(6-aminopurin-9-yl)-1-methyl-ethoxy]methyl-[(2R)-2-benzyloxy-3-octadecoxy-propoxy]phosphinate]",,,2,,2
"CCCCCCCCCCCCCCCCCCOC[C@@H](COP(=O)(O)CO[C@H](C)Cn1cnc2c(N)ncnc21)OCc1ccccc1 [8b, Ammonium[(1R)-2-(6-aminopurin-9-yl)-1-methyl-ethoxy]methyl-[(2S)-2-benzyloxy-3-octadecoxy-propoxy]phosphinate]",,,1,,1
"CCCCCCCCCCCCCCCCOCCCOP(=O)(O)CO[C@H](C)Cn1cnc2c(N)ncnc21 [TXL, hexadecyloxypropyl (HDP)-TFV, reference compound]",,200,1,,1
"C[C@H](Cn1cnc2c(N)ncnc21)OCP(=O)(O)OC[C@H](COCCCCCCCCCCCCCCCCCC(F)(F)F)OCc1ccccc1 [21b, Ammonium[(1R)-2-(6-aminopurin-9-yl)-1-methyl-ethoxy]methyl-[(2S)-2-benzyloxy-3-(18,18,18-trifluorooctadecoxy)propoxy]phosphinate]",3,70,0.4,,
"CCCCCCCCCCCCCCCCOC[C@H](COP(=O)(O)CO[C@H](C)Cn1cnc2c(N)ncnc21)OCc1ccccc1 [8c, Ammonium[(1R)-2-(6-aminopurin-9-yl)-1-methyl-ethoxy]methyl-[(2R)-2-benzyloxy-3-hexadecoxy-propoxy]phosphinate]",,,2,,2
"CCCCCCCCCCCCCCCCOC[C@@H](COP(=O)(O)CO[C@H](C)Cn1cnc2c(N)ncnc21)OCc1ccccc1 [8a, Ammonium[(1R)-2-(6-aminopurin-9-yl)-1-methyl-ethoxy]methyl-[(2S)-2-benzyloxy-3-hexadecoxy-propoxy]phosphinate]",,,1,,1
